The record followed here is the supplement of paper PMC4604168 (melanoma cell lines).

The other results are listed elsewhere or left out. Many values rest on one well or one pass, so single values are uncertain.

Test systems include WM115; WM1716; WM1745; WM3526; WM3619; WM451Lu.
Holding throughout (assay): cell count relative to DMSO control; melanoma cells; higher = more viable cells
Holding throughout (conditions): library dose: low library concentration; 72 h
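Further: cell number obtained by counting DAPI-stained nuclei in high-throughput microscope images with image analysis software, screen run in 1,536-well plates.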

Regarding `CC[C@]1(O)C[C@H]2CN(CCc3c([nH]c4ccccc34)[C@@](C(=O)OC)(c3cc4c(cc3OC)N(C=O)[C@H]3[C@@](O)(C(=O)OC)[C@H](OC(C)=O)[C@]5(CC)C=CCN6CC[C@]43[C@@H]65)C2)C1` [vincristine] + CCCCCCCCCCCC1=C(O)C(=O)C=C(O)C1=O [Embelin] (first compound 0.0001 µM, partner dose 1.2 µM), the cell count in the test on WM115 came out at 44.2%; with WM1716, 35.5%; in the test with WM1745 it was 65%; in the test with WM3526, 67.2%; in the test on WM3619 it was 52.5%; in the test with WM451Lu, 50.1%.

With `Cc1cc(Nc2cc(N3CCN(C)CC3)nc(Sc3ccc(NC(=O)C4CC4)cc3)n2)n[nH]1` [Tozasertib] + CC1(C)CCC(c2ccc(Cl)cc2)=C(CN2CCN(c3ccc(C(=O)NS(=O)(=O)c4ccc(N[C@H](CCN5CCOCC5)CSc5ccccc5)c(S(=O)(=O)C(F)(F)F)c4)cc3)CC2)C1 [ABT263] (first compound 0.006 µM, partner dose 0.4 µM), the cell count in the test on WM115 was found to be 67.7%; with WM1716 it was 68.6%; in the test on WM1745 it was 19.9%; in the test on WM3526, 96.5%; in the test on WM3619, 92.1%; in the test on WM451Lu, 98.4%.

For `CC[C@]1(O)C[C@H]2CN(CCc3c([nH]c4ccccc34)[C@@](C(=O)OC)(c3cc4c(cc3OC)N(C=O)[C@H]3[C@@](O)(C(=O)OC)[C@H](OC(C)=O)[C@]5(CC)C=CCN6CC[C@]43[C@@H]65)C2)C1` [vincristine] + C[C@@H](N)c1ccc(C(=O)Nc2ccnc3[nH]ccc23)cc1 [RKI983] (first compound 0.0001 µM, partner dose 0.4 µM), the cell count with WM115 was found to be 53.7%; in the test with WM1716 it was 30.8%; in the test on WM1745, 91.5%; in the test with WM3526 it was 70%; in the test on WM3619 it was 50.6%; with WM451Lu, 62.2%.

On to `CC[C@]1(O)C[C@H]2CN(CCc3c([nH]c4ccccc34)[C@@](C(=O)OC)(c3cc4c(cc3OC)N(C=O)[C@H]3[C@@](O)(C(=O)OC)[C@H](OC(C)=O)[C@]5(CC)C=CCN6CC[C@]43[C@@H]65)C2)C1` [vincristine] + CO[C@@H]1[C@H](N(C)C(=O)c2ccccc2)C[C@H]2O[C@]1(C)n1c3ccccc3c3c4c(c5c6ccccc6n2c5c31)C(=O)NC4 [Midostaurin] (first compound 0.0001 µM, partner dose 0.08 µM), for which the cell count with WM115 came to 54.1%; with WM1716, 24.5%; with WM1745, 97.9%; in the test on WM3526, 76%; in the test on WM3619 it was 78.4%; in the test with WM451Lu it was 81.6%.

In the case of `CC[C@]1(O)C[C@H]2CN(CCc3c([nH]c4ccccc34)[C@@](C(=O)OC)(c3cc4c(cc3OC)N(C=O)[C@H]3[C@@](O)(C(=O)OC)[C@H](OC(C)=O)[C@]5(CC)C=CCN6CC[C@]43[C@@H]65)C2)C1` [vincristine] + CN(c1ncccc1CNc1nc(Nc2ccc3c(c2)CC(=O)N3)ncc1C(F)(F)F)S(C)(=O)=O [PF562271] (first compound 0.0001 µM, partner dose 0.08 µM), the cell count in the test with WM115 worked out at 52.7%; with WM1716, 43.7%; with WM1745 it was 92.4%; in the test on WM3526, 76.8%; with WM3619, 36.9%; in the test on WM451Lu, 52.7%.

Regarding `CC[C@]1(O)C[C@H]2CN(CCc3c([nH]c4ccccc34)[C@@](C(=O)OC)(c3cc4c(cc3OC)N(C=O)[C@H]3[C@@](O)(C(=O)OC)[C@H](OC(C)=O)[C@]5(CC)C=CCN6CC[C@]43[C@@H]65)C2)C1` [vincristine] + N#Cc1c(O)c2c(-c3ccc(-c4ccccc4O)cc3)csc2[nH]c1=O [A769662] (first compound 0.0001 µM, partner dose 2 µM), the cell count in the test on WM115 was 60.4%; with WM1716 it was 51.1%; with WM1745, 84.8%; in the test on WM3526 it was 83.2%; in the test with WM3619 it was 59.3%; in the test on WM451Lu, 56.7%.

For `CC[C@]1(O)C[C@H]2CN(CCc3c([nH]c4ccccc34)[C@@](C(=O)OC)(c3cc4c(cc3OC)N(C=O)[C@H]3[C@@](O)(C(=O)OC)[C@H](OC(C)=O)[C@]5(CC)C=CCN6CC[C@]43[C@@H]65)C2)C1` [vincristine] + Cc1ccc(Nc2nccc(N(C)c3ccc4c(C)n(C)nc4c3)n2)cc1S(N)(=O)=O [Pazopanib] (first compound 0.0001 µM, partner dose 0.4 µM), the cell count was found to be 61.3% in the test with WM115; 39% with WM1716; 86.9% with WM1745; 62.2% in the test on WM3526; 48.1% with WM3619; 65.3% with WM451Lu.

As to `CC[C@]1(O)C[C@H]2CN(CCc3c([nH]c4ccccc34)[C@@](C(=O)OC)(c3cc4c(cc3OC)N(C=O)[C@H]3[C@@](O)(C(=O)OC)[C@H](OC(C)=O)[C@]5(CC)C=CCN6CC[C@]43[C@@H]65)C2)C1` [vincristine] + Cc1ccc(NC(=O)c2cccc(N(C)C)c2)cc1NC(=O)c1ccc(O)cc1 [ZM336372] (first compound 0.0001 µM, partner dose 2 µM), the cell count turned out to be 37.8% with WM115; 41.3% in the test on WM1716; 76.5% in the test on WM1745; 57.3% with WM3526; 64.7% in the test with WM3619; 38.9% with WM451Lu.

Turning to `CC[C@]1(O)C[C@H]2CN(CCc3c([nH]c4ccccc34)[C@@](C(=O)OC)(c3cc4c(cc3OC)N(C=O)[C@H]3[C@@](O)(C(=O)OC)[C@H](OC(C)=O)[C@]5(CC)C=CCN6CC[C@]43[C@@H]65)C2)C1` [vincristine] + Clc1ccc(Nc2nnc(Cc3ccncc3)c3ccccc23)cc1 [vatalanib] (first compound 0.0001 µM, partner dose 2 µM), the cell count with WM115 is 38.2%; with WM1716, 41.5%; in the test on WM1745, 68.9%; with WM3526 it was 49.8%; in the test with WM3619, 44.5%; in the test on WM451Lu it was 51%.

Consider `CC[C@]1(O)C[C@H]2CN(CCc3c([nH]c4ccccc34)[C@@](C(=O)OC)(c3cc4c(cc3OC)N(C=O)[C@H]3[C@@](O)(C(=O)OC)[C@H](OC(C)=O)[C@]5(CC)C=CCN6CC[C@]43[C@@H]65)C2)C1` [vincristine] + COc1ccc(COc2ccc(Cc3cnc(N)nc3N)cc2OC)cc1 [GW2580] (first compound 0.0001 µM, partner dose 1 µM), for which the cell count with WM115 came to 78.2%; in the test with WM1716 it was 82.8%; in the test with WM1745, 110%; with WM3526, 73.8%; with WM3619, 90%; in the test on WM451Lu it was 94.5%.

Take `Cc1cc(Nc2cc(N3CCN(C)CC3)nc(Sc3ccc(NC(=O)C4CC4)cc3)n2)n[nH]1` [Tozasertib] + C[C@@H](Oc1cc(-c2cnn(C3CCNCC3)c2)cnc1N)c1c(Cl)ccc(F)c1Cl [Crizotinib] (first compound 0.006 µM, partner dose 0.2 µM): the cell count in the test with WM115 was determined as 89.8%; with WM1716, 91.4%; in the test with WM1745, 86.9%; with WM3526, 88.7%; in the test with WM3619, 93%; with WM451Lu, 95.4%.

For the molecule `Cc1cc(Nc2cc(N3CCN(C)CC3)nc(Sc3ccc(NC(=O)C4CC4)cc3)n2)n[nH]1` [Tozasertib] + COc1ccc(C2=N[C@@H](c3ccc(Cl)cc3)[C@@H](c3ccc(Cl)cc3)N2C(=O)N2CCNC(=O)C2)c(OC(C)C)c1 [Nutlin-3] (first compound 0.006 µM, partner dose 0.1 µM), the cell count in the test on WM115 amounted to 87.4%; with WM1716 it was 96.3%; in the test with WM1745 it was 97.4%; with WM3526, 77.7%; with WM3619 it was 83.5%; in the test with WM451Lu it was 93.1%.

`Cc1cc(Nc2cc(N3CCN(C)CC3)nc(Sc3ccc(NC(=O)C4CC4)cc3)n2)n[nH]1` [Tozasertib] + CS(=O)(=O)CCNCc1ccc(-c2ccc3ncnc(Nc4ccc(OCc5cccc(F)c5)c(Cl)c4)c3c2)o1 [lapatinib] (first compound 0.006 µM, partner dose 0.8 µM): the cell count was 90.8% in the test with WM115; 95.6% in the test with WM1716; 88.5% with WM1745; 77% in the test with WM3526; 102% with WM3619; 102% in the test with WM451Lu.

For the molecule `N#CC[C@H](C1CCCC1)n1cc(-c2ncnc3[nH]ccc23)cn1` [ruxolitinib] + COCC[n+]1c2c(n(Cc3cnccn3)c1C)C(=O)c1ccccc1C2=O [YM155] (first compound 1 µM, partner dose 0.0004 µM), the cell count was found to be 102% in the test with WM115; 99.1% with WM1716; 104% in the test on WM1745; 125% with WM3526; 117% in the test on WM3619; 68.3% in the test on WM451Lu.

With `Cc1cc(Nc2cc(N3CCN(C)CC3)nc(Sc3ccc(NC(=O)C4CC4)cc3)n2)n[nH]1` [Tozasertib] + COc1cc([C@@H]2c3cc4c(cc3[C@@H](O[C@@H]3O[C@@H]5CO[C@@H](C)O[C@H]5[C@H](O)[C@H]3O)[C@H]3COC(=O)[C@H]23)OCO4)cc(OC)c1O [etoposide] (first compound 0.006 µM, partner dose 0.02 µM), the cell count in the test with WM115 is 90%; in the test with WM1716 it was 74%; in the test with WM1745, 84.5%; in the test on WM3526 it was 94%; in the test on WM3619, 87.4%; with WM451Lu, 84.5%.

On to `CC[C@]1(O)C[C@H]2CN(CCc3c([nH]c4ccccc34)[C@@](C(=O)OC)(c3cc4c(cc3OC)N(C=O)[C@H]3[C@@](O)(C(=O)OC)[C@H](OC(C)=O)[C@]5(CC)C=CCN6CC[C@]43[C@@H]65)C2)C1` [vincristine] + Cc1nc(Nc2ncc(C(=O)Nc3c(C)cccc3Cl)s2)cc(N2CCN(CCO)CC2)n1 [dasatanib] (first compound 0.0001 µM, partner dose 0.004 µM), for which the cell count in the test with WM115 came out at 37%; in the test with WM1716 it was 35.9%; in the test on WM1745, 60.4%; with WM3526, 68.7%; with WM3619, 47.1%; with WM451Lu, 68.8%.

Consider `N#CC[C@H](C1CCCC1)n1cc(-c2ncnc3[nH]ccc23)cn1` [ruxolitinib] + O=C(CCCCCCC(=O)Nc1ccccc1)NO [vorinostat] (first compound 1 µM, partner dose 0.08 µM), for which the cell count came to 107% in the test on WM115; 125% with WM1716; 109% with WM1745; 106% with WM3526; 93.1% in the test on WM3619; 95.5% in the test with WM451Lu.

Take `N#CC[C@H](C1CCCC1)n1cc(-c2ncnc3[nH]ccc23)cn1` [ruxolitinib] + Cn1sc(=O)n(Cc2ccccc2)c1=O [TDZD-8] (first compound 1 µM, partner dose 0.4 µM): the cell count in the test on WM115 is 102%; in the test with WM1716 it was 84.2%; in the test with WM1745, 105%; in the test with WM3526, 105%; with WM3619, 95%; in the test with WM451Lu, 113%.

Consider `CC[C@]1(O)C[C@H]2CN(CCc3c([nH]c4ccccc34)[C@@](C(=O)OC)(c3cc4c(cc3OC)N(C=O)[C@H]3[C@@](O)(C(=O)OC)[C@H](OC(C)=O)[C@]5(CC)C=CCN6CC[C@]43[C@@H]65)C2)C1` [vincristine] + CN(C)S(=O)(=O)c1ccc2c(c1)/C(=C/c1cc3c([nH]1)CCCC3)C(=O)N2 [SU6656] (first compound 0.0001 µM, partner dose 0.4 µM), for which the cell count came out at 29.9% in the test with WM115; 46.5% with WM1716; 84.4% in the test with WM1745; 47.2% in the test with WM3526; 55.7% in the test on WM3619; 54.7% in the test with WM451Lu.

Consider `Cc1cc(Nc2cc(N3CCN(C)CC3)nc(Sc3ccc(NC(=O)C4CC4)cc3)n2)n[nH]1` [Tozasertib] + Cc1ccc(NC(=O)c2cccc(N(C)C)c2)cc1NC(=O)c1ccc(O)cc1 [ZM336372] (first compound 0.006 µM, partner dose 2 µM), for which the cell count with WM115 stood at 96.9%; in the test on WM1716, 93.6%; with WM1745, 78.9%; with WM3526 it was 101%; in the test on WM3619 it was 97%; in the test on WM451Lu, 117%.
